The text below walks through data of PubChem BioAssay (NCI).

Where “and” joins values, the source holds several entries; their conditions need not be identical. Equal entries are not always repeated.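 Method: 48-hour compound exposure of cells in 96-well plates, five concentrations, linear interpolation of endpoints. Here, GI50 denotes the concentration required for 50% inhibition of growth. At the TGI there is no net growth.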 Some results are limits rather than exact numbers.

In the assay the test system is NCI-H322M lung. Description: growth of human tumour cells (NCI), 48 h.
The molecule `CCOC(=O)/C=C/C1(CCOC(C)=O)CCCCC1` gave a TGI greater than 10 µM. Still for that read-out and setting: then `C=CCNC(=O)CN(CC(=O)OC)C1CCCCC1N(CC(=O)OC)CC(=O)OC` (configuration not stated), with greater than 100 µM. For the molecule `COCCOCCOCCOCCOC(=O)OC[n+]1ccc(NC(=NCCCCCCOc2ccc(Cl)cc2)NC#N)cc1`, the GI50 was 12.8 µM and the TGI is 25.6 µM. Take `CCCC(=O)OCOC(=O)N(C)N=Nc1ccc(C(=O)OCC)cc1`: the TGI was greater than 100 µM. `C[C@H](NC(=O)CNC(=O)CCCCCC(=O)NCC(=O)N[C@@H](C)C(=O)OCc1ccccc1)C(=O)OCc1ccccc1` registered a TGI greater than 100 µM. `CC(=O)O[C@@H]1[C@H]2[C@@H](OC(=O)c3ccccc3)[C@@H](C)C[C@]2(O)[C@H](OC(C)=O)[C@@]2(C)[C@@H]3C[C@@](C)(OC(C)=O)C[C@@H](OC(C)=O)[C@@]3(OC(C)=O)C[C@@]12C` returned a TGI greater than 10 µM. Still for that read-out and setting: then `Nc1n[nH]c(CCCCCCCc2nc(N)n[nH]2)n1`, with greater than 100 µM; and `CC(=O)N(CC(=O)C(=O)NNc1ccoc1)c1ccc(Cl)cc1`, with greater than 100 µM. Consider `c1ccc2cc3c(cc2c1)OP1(Oc2cccc4cccnc24)(O3)Oc2cc3ccccc3cc2O1`, for which the TGI is greater than 94.6 µM. As to `[Cl][Cu][Cl]`, the GI50 was greater than 10 µM and the TGI is greater than 10 µM.

Consider `CC(N)CC(=O)O` (configuration not stated), for which the TGI was greater than 5000 µM. The molecule `C[C@H]1C(=O)c2c(cc(O)c(C3OC(CO)C(O)C(O)C3O)c2O)OC1c1ccc(O)c(O)c1` (some centres not stated) registered a TGI greater than 100 µM. As for `O=C(c1cc(Cc2n[nH]c(=O)c3ccccc23)ccc1F)N1CCN(C(=O)C2CC2)CC1`, the GI50 is greater than 100 µM and the TGI was greater than 100 µM. Consider `Cc1ccc(Cl)cc1-n1c(C)nc2c(cnn2-c2ccnc3c(C(F)(F)F)cccc23)c1=O`, for which the GI50 is greater than 100 µM and the TGI was greater than 100 µM. `N#Cc1c(NC(=O)c2ccccc2F)sc2c1CCCC2`: the GI50 was greater than 25 µM and the TGI is greater than 25 µM. `Cc1ccc(S(=O)(=O)N2CCN(S(=O)(=O)c3ccc(C)cc3)CCN(S(=O)(=O)c3ccc(C)cc3)Cc3cc(Br)c(Br)cc3CN(S(=O)(=O)c3ccc(C)cc3)CC2)cc1` displayed a TGI greater than 100 µM. On to `CC(=O)N(O)c1ccc(/C=C/c2ccccc2)cc1`, for which the GI50 is 3.07 µM and the TGI worked out at 12 µM. `O=C(N/N=C(\C1=Nc2ccc(Cl)cc2NC1O)C(O)/C=C/c1ccccc1)c1ccncc1` (configuration not stated) gave a TGI greater than 100 µM. For the molecule `C/C(=N\NC(=S)N1CCN(c2ccccn2)CC1)c1ncccn1`, the GI50 is 0.186 µM; the TGI was 5.09 µM and 13.6 µM. In the case of `Clc1ccc([I+]c2ccc(Cl)cc2Cl)c(Cl)c1`, the GI50 was 4.02 µM and the TGI amounted to 13.4 µM.

As for `COC(=O)c1cc([N+](=O)[O-])cc([N+](=O)[O-])c1Cl`, the GI50 was 17.6 µM and the TGI was found to be 33.5 µM. For `O=C(CC(=O)c1ccccc1)C(=O)Nc1ccc(Cl)cc1`, the TGI was greater than 100 µM. `O=c1[nH]c2nc[nH]c2c(=O)n1C1CCCCC1` returned a TGI greater than 100 µM. As for `O=C1C=C(C2=C(C3=CC(=O)c4ccccc4C3=O)C(=O)c3ccccc3C2=O)C(=O)c2ccccc21`, the TGI was determined as 31.6 µM. For the molecule `COc1ccc(/C=C/c2cc(OC)c(OCc3ccccc3)c(OC)c2)cc1`, the TGI is greater than 100 µM.

On to `O=C1CSC(c2ccccc2O)N1c1ccc(Oc2ccc(Cl)cc2)c(Cl)c1` (configuration not stated), for which the TGI amounted to 52.3 µM. As to `C/C(=N\NC(=O)C(N)=O)c1c(O)cc(C)oc1=O`, the TGI was greater than 100 µM. `C/C(=N\NC(=S)Nc1ccc([N+](=O)[O-])cc1)c1nc2ncccc2[nH]1` registered a TGI greater than 100 µM.

Consider `CC(C)N(Cc1ccc(F)cc1)c1ccc(CO)c(Cl)c1`, for which the GI50 was 7.19 µM and the TGI worked out at 21 µM.

In the case of `C=C(C)CCC1CC=[N+]([O-])OC1C(C)(C)C` (configuration not stated), the TGI was greater than 100 µM. For the molecule `CC1(C)[C@H](O)[C@H](F)C[C@@]2(C)Oc3ccc(C(=O)Nc4ccc5c(c4)NC(=O)C54CCN(CCCCC#N)CC4)cc3C[C@H]12`, the GI50 was 7.59 µM and 10.4 µM; the TGI was determined as 25.1 µM. Turning to `CCN(Cc1ccc(F)cc1)c1ccc(CO)c(C(F)(F)F)c1`, the GI50 is 14.9 µM and the TGI came out at 29.3 µM. Molecule `CSc1c(C#N)c(S)n(-c2ccc(Cl)cc2)c(=O)c1C#N` yielded a TGI greater than 100 µM. `C#CCNC(=O)NC(CCCCNC(=O)OCc1ccccc1)C(=O)OCc1ccccc1` (configuration not stated) came in with a TGI greater than 100 µM.

`C[C@@]1(OC(=O)c2cc([N+](=O)[O-])cc([N+](=O)[O-])c2)C[C@@H]2CCCC[C@@H]21` registered a TGI greater than 100 µM.

In turn, `Nc1nc(C(=O)O)c(N=Nc2ccccc2)c(=O)[nH]1` had a TGI greater than 100 µM. Turning to `CC(C)OC(=O)C1Cc2c([nH]c3ccccc23)C(c2ccccc2)N1` (configuration not stated), the TGI is greater than 100 µM. The same measure, in the same setting: then `CN(C)C(F)=PC(F)(F)F` (configuration not stated), with greater than 100 µM; and `Cc1cc2c(c(=O)o1)C1=S(SC(c3ccccc3)=C1)S2` (configuration not stated), with greater than 100 µM. On to `CN(C)c1nc(N)c(C#N)c(C#N)c1C#N`, for which the TGI was greater than 10 µM. On the same count and under the same terms, then `CCOP(=O)(OCC)C(Cc1ccc(Cl)cc1)NS(=O)(=O)c1ccc(C)cc1` (configuration not stated), with greater than 100 µM. On the same count and under the same terms, then `O=c1cc(CNC2CC3CCC2C3)[nH]c(=O)[nH]1` (configuration not stated), with greater than 100 µM. `O=C(Nc1ccc2[nH]c(C(=O)N3CC(CCl)c4ccc([N+](=O)[O-])cc43)cc2c1)c1cc2ccccc2o1` (configuration not stated): the TGI is greater than 1100 µM.

As to `c1ccc2c(CNCCN3CCNCC3)c3ccccc3c(CNCCN3CCNCC3)c2c1`, the GI50 is 8.91 µM and the TGI came to 34.6 µM. Take `CC1CCC2(C)C(CC=C(C=O)C2(O)C=O)C12CO2` (configuration not stated): the TGI is 16 µM.

Turning to `CCc1ccccc1NC(=O)CC1NC(=O)CS1` (configuration not stated), the TGI was greater than 100 µM. Regarding `CN1CCCC1c1cccnc1.O=C(O)c1ccccc1O.O=C([O-])c1ccccc1[OH2+].O=C([O-])c1ccccc1[OH2+].[Mn+2]` (configuration not stated), the GI50 is greater than 100 µM and the TGI was greater than 100 µM. Consider `COc1cc(/C=C/C(=O)O[C@H]2[C@H](O[C@@H]3O[C@@H](C)[C@H](O)[C@@H](O)[C@H]3O)[C@@H](O)[C@H](OCCc3ccc(O)c(O)c3)O[C@@H]2COC2OCC(O)(CO)C2O)ccc1O` (some centres not stated), for which the GI50 is 85 µM and the TGI is greater than 100 µM. The matching figures for `NCc1ccc(-c2nc(-c3ccc(Cl)c(O)c3)c(-c3ccncc3)[nH]2)cc1`: greater than 25 µM and greater than 25 µM. With `Cc1ccc(-n2c(-c3cc4c([nH]c5ccccc54)c(-c4cccc(O)c4)n3)n[nH]c2=S)cc1`, the GI50 is 0.694 µM and the TGI was 5.61 µM. With `CC1=NNC(=S)NCCCN2CCN(CCCNC(=S)NN=C(C)C=NNC(=S)NCCCN3CCN(CCCNC(=S)NN=C1)CC3)CC2`, the TGI was greater than 100 µM.

In turn, `O=C(O)C12CC3CC(C1)C2C=C3P(=O)(O)O` (configuration not stated) registered a TGI greater than 100 µM. For `COc1ccc(OC)c(Cc2cnc3nc(N)nc(N)c3c2C)c1`, the TGI was greater than 56.6 µM.

As for `CN1C(=NCCO)NS(=O)(=O)c2ccccc21`, the TGI was greater than 100 µM. Same read-out and setting: then `COc1cc(-c2cc(=O)c3ccccc3[nH]2)cc(OC)c1OC`, with greater than 75 µM; and `O=C1C(Sc2ccc3ccccc3c2)=C(Sc2ccc3ccccc3c2)C(=O)c2ccccc21`, with 40.4 µM. The molecule `CC(C)=CC(=O)OC1C2C(C)=CC(O)C(O)C2(C)C2C3(O)OCC24C(CC(=O)OC14)C(C)C3O` (configuration not stated) registered a TGI of 5.99 µM. Consider `N#Cc1cc2c(cc1Cl)Sc1nnc(Nc3cccc4ccccc34)n1S2(=O)=O`, for which the GI50 was 5.2 µM and the TGI is 18.3 µM. Turning to `c1ccc(CN2COc3c(ccc4c5c(ccc34)CN(Cc3ccccc3)CO5)C2)cc1`, the TGI is greater than 100 µM.
